Test [1] has as its target T1, NPHP2 (inversin) (UniProt Q9Y283).
T1 sequence: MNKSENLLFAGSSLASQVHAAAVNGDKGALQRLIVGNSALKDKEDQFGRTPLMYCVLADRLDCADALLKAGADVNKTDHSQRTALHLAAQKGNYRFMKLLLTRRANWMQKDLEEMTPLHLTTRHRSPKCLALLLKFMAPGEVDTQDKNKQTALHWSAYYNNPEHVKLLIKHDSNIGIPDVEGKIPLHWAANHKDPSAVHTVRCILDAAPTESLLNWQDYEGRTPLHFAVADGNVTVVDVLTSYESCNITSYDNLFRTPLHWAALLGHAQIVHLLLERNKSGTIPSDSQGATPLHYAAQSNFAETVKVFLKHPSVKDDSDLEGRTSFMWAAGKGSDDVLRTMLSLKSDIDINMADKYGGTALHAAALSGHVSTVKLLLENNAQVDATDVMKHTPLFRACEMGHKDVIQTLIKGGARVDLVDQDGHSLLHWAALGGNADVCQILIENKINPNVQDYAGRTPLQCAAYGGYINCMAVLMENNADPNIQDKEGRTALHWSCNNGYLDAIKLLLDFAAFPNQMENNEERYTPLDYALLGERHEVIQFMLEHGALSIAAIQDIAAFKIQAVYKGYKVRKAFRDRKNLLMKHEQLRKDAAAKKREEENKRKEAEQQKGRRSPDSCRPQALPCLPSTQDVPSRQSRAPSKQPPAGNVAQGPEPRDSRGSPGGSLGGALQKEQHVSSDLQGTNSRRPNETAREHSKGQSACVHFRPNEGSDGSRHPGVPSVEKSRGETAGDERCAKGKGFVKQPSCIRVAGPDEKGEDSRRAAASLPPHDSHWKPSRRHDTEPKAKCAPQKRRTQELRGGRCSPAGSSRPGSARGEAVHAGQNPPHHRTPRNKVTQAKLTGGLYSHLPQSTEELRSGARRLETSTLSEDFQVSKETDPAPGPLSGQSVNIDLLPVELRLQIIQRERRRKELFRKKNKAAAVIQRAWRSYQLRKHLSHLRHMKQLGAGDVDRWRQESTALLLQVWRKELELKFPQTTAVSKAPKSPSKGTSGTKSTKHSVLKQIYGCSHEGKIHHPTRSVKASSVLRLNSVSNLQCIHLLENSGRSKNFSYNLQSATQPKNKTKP
The test can be described thus: two-hybrid; directed yeast two-hybrid by mating: AH109 with pGBKT7 (BD, bait) fusions x Y187 with pACT2 (AD, prey) fusions; growth on -leu,-trp,-his plates scored as strong, medium or weak; each mating repeated at least three times.

For test [2], the target named is T2, NPHP1-mCh-mito (UniProt O15259).
T2 sequence: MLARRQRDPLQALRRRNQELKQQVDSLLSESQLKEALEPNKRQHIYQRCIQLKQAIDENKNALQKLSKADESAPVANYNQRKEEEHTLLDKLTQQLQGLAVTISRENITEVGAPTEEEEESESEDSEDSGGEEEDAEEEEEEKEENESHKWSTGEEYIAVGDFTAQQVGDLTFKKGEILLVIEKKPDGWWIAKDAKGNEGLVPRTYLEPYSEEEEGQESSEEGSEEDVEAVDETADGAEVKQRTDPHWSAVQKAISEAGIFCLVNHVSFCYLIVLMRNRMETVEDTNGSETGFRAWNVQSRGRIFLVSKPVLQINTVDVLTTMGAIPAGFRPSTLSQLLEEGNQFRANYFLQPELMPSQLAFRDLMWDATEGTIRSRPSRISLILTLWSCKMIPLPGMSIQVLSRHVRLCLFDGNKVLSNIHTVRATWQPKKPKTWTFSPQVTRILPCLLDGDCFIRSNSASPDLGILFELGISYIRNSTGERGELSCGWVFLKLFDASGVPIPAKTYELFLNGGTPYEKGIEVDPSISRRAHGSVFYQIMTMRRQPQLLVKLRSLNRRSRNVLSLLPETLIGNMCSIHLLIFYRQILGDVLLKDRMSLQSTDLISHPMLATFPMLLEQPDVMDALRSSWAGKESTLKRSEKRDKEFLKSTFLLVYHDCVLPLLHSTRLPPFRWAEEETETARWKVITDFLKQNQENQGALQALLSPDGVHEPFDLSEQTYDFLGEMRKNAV
The experiment in a line: knocksideways (recruitment to the mitochondrial surface, fluorescence microscopy); NPHP-mCh-mito bait on the mitochondrial surface co-expressed with EGFP-tagged nucleoporin in COS-7 cells; fixed 24 hours post-transfection.

The target in test [3] is T3, NPHP2-mCh-mito (UniProt Q9Y283).
T3 sequence: T1 sequence
The test is described as above.

The target of test [4] is T4, NPHP5-mCh-mito (mouse) (UniProt Q8BP00).
T4 sequence: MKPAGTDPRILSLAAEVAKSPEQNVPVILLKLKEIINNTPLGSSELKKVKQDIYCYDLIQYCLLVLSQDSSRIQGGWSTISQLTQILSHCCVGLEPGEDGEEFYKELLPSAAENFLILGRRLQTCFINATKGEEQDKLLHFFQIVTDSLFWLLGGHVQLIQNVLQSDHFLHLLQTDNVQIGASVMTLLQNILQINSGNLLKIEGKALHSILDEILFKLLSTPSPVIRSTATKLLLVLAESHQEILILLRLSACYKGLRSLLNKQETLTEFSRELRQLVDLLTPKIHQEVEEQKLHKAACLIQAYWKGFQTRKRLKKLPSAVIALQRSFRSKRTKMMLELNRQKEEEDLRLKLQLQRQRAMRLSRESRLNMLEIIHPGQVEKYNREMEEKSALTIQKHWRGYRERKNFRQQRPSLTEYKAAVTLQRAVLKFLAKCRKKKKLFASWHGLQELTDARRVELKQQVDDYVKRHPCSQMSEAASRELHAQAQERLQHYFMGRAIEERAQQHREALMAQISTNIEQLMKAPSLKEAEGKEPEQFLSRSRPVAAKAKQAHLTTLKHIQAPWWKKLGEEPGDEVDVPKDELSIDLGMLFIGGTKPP
Described as above.

No constants are given. Whether binding was seen depends on the method and setting. Some results given as binding are weak or reduced against the parent protein; the word gives no strength. For some assays here: Tags and fused reporters may be left off the sequences shown.

B1: Nup155 (protein, UniProt O75694 1-1391)
chain: MPSSLLGAAMPASTSAAALQEALENAGRLIDRQLQEDRMYPDLSELLMVSAPNNPTVSGMSDMDYPLQGPGLLSVPNLPEISSIRRVPLPPELVEQFGHMQCNCMMGVFPPISRAWLTIDSDIFMWNYEDGGDLAYFDGLSETILAVGLVKPKAGIFQPHVRHLLVLATPVDIVILGLSYANLQTGSGVLNDSLSGGMQLLPDPLYSLPTDNTYLLTITSTDNGRIFLAGKDGCLYEVAYQAEAGWFSQRCRKINHSKSSLSFLVPSLLQFTFSEDDPILQIAIDNSRNILYTRSEKGVIQVYDLGQDGQGMSRVASVSQNAIVSAAGNIARTIDRSVFKPIVQIAVIENSESLDCQLLAVTHAGVRLYFSTCPFRQPLARPNTLTLVHVRLPPGFSASSTVEKPSKVHRALYSKGILLMAASENEDNDILWCVNHDTFPFQKPMMETQMTAGVDGHSWALSAIDELKVDKIITPLNKDHIPITDSPVVVQQHMLPPKKFVLLSAQGSLMFHKLRPVDQLRHLLVSNVGGDGEEIERFFKLHQEDQACATCLILACSTAACDREVSAWATRAFFRYGGEAQMRFPTTLPPPSNVGPILGSPVYSSSPVPSGSPYPNPSFLGTPSHGIQPPAMSTPVCALGNPATQATNMSCVTGPEIVYSGKHNGICIYFSRIMGNIWDASLVVERIFKSGNREITAIESSVPCQLLESVLQELKGLQEFLDRNSQFAGGPLGNPNTTAKVQQRLIGFMRPENGNPQQMQQELQRKFHEAQLSEKISLQAIQQLVRKSYQALALWKLLCEHQFTIIVAELQKELQEQLKITTFKDLVIRDKELTGALIASLINCYIRDNAAVDGISLHLQDICPLLYSTDDAICSKANELLQRSRQVQNKTEKERMLRESLKEYQKISNQVDLSNVCAQYRQVRFYEGVVELSLTAAEKKDPQGLGLHFYKHGEPEEDIVGLQAFQERLNSYKCITDTLQELVNQSKAAPQSPSVPKKPGPPVLSSDPNMLSNEEAGHHFEQMLKLSQRSKDELFSIALYNWLIQVDLADKLLQVASPFLEPHLVRMAKVDQNRVRYMDLLWRYYEKNRSFSNAARVLSRLADMHSTEISLQQRLEYIARAILSAKSSTAISSIAADGEFLHELEEKMEVARIQLQIQETLQRQYSHHSSVQDAVSQLDSELMDITKLYGEFADPFKLAECKLAIIHCAGYSDPILVQTLWQDIIEKELSDSVTLSSSDRMHALSLKIVLLGKIYAGTPRFFPLDFIVQFLEQQVCTLNWDVGFVIQTMNEIGVPLPRLLEVYDQLFKSRDPFWNRMKKPLHLLDCIHVLLIRYVENPSQVLNCERRRFTNLCLDAVCGYLVELQSMSSSVAVQAITGNFKSLQAKLERLH
For the molecule B1, the binding entry in test [1] is “binds”.

B2: EGFP-tagged Nup37 (protein, UniProt Q8NFH4 1-326)
chain: MKQDASRNAAYTVDCEDYVHVVEFNPFENGDSGNLIAYGGNNYVVIGTCTFQEEEADVEGIQYKTLRTFHHGVRVDGIAWSPETRLDSLPPVIKFCTSAADMKIRLFTSDLQDKNEYKVLEGHTDFINGLVFDPKEGQEIASVSDDHTCRIWNLEGVQTAHFVLHSPGMSVCWHPEETFKLMVAEKNGTIRFYDLLAQQAILSLESEQVPLMSAHWCLKNTFKVGAVAGNDWLIWDITRSSYPQNKRPVHMDRACLFRWSTISENLFATTGYPGKMASQFQIHHLGHPQPILMGSVAVGSGLSWHRTLPLCVIGGDHKLLFWVTEV
As to B2, the binding entry in test [2], in test [3] and in test [4] was “no binding” each time.

B3: Nup133 (protein, UniProt Q8WUM0 1-1156)
chain: MFPAAPSPRTPGTGSRRGPLAGLGPGSTPRTASRKGLPLGSAVSSPVLFSPVGRRSSLSSRGTPTRMFPHHSITESVNYDVKTFGSSLPVKVMEALTLAEVDDQLTINIDEGGWACLVCKEKLIIWKIALSPITKLSVCKELQLPPSDFHWSADLVALSYSSPSGEAHSTQAVAVMVATREGSIRYWPSLAGEDTYTEAFVDSGGDKTYSFLTAVQGGSFILSSSGSQLIRLIPESSGKIHQHILPQGQGMLSGIGRKVSSLFGILSPSSDLTLSSVLWDRERSSFYSLTSSNISKWELDDSSEKHAYSWDINRALKENITDAIWGSESNYEAIKEGVNIRYLDLKQNCDGLVILAAAWHSADNPCLIYYSLITIEDNGCQMSDAVTVEVTQYNPPFQSEDLILCQLTVPNFSNQTAYLYNESAVYVCSTGTGKFSLPQEKIVFNAQGDSVLGAGACGGVPIIFSRNSGLVSITSRENVSILAEDLEGSLASSVAGPNSESMIFETTTKNETIAQEDKIKLLKAAFLQYCRKDLGHAQMVVDELFSSHSDLDSDSELDRAVTQISVDLMDDYPASDPRWAESVPEEAPGFSNTSLIILHQLEDKMKAHSFLMDFIHQVGLFGRLGSFPVRGTPMATRLLLCEHAEKLSAAIVLKNHHSRLSDLVNTAILIALNKREYEIPSNLTPADVFFREVSQVDTICECLLEHEEQVLRDAPMDSIEWAEVVINVNNILKDMLQAASHYRQNRNSLYRREESLEKEPEYVPWTATSGPGGIRTVIIRQHEIVLKVAYPQADSNLRNIVTEQLVALIDCFLDGYVSQLKSVDKSSNRERYDNLEMEYLQKRSDLLSPLLSLGQYLWAASLAEKYCDFDILVQMCEQTDNQSRLQRYMTQFADQNFSDFLFRWYLEKGKRGKLLSQPISQHGQLANFLQAHEHLSWLHEINSQELEKAHATLLGLANMETRYFAKKKTLLGLSKLAALASDFSEDMLQEKIEEMAEQERFLLHQETLPEQLLAEKQLNLSAMPVLTAPQLIGLYICEENRRANEYDFKKALDLLEYIDEEEDININDLKLEILCKALQRDNWSSSDGKDDPIEVSKDSIFVKILQKLLKDGIQLSEYLPEVKDLLQADQLGSLKSNPYFEFVLKANYEYYVQGQI
Take B3: the binding result in test [1] is “binds”.

Values taken from paper PMC6760808.
